# Measurements from PubChem BioAssay AID1645882 (National Center for Advancing Translational Sciences (NCATS), 2021).
# Hit rate of the full screen: of about 16,000 compounds, about 120 (0.75%) were called active. Not shown: some 4% with an inconclusive outcome. Calls follow the shape of the dose curve; as a rule, active = well fitted inhibition curve with a large enough effect; inconclusive = small, poorly fitted or top-dose-only effect; inactive = no such curve, though single readings can be large or run the other way. The list shows a part of the results.
# Molecular target: Rap guanine nucleotide exchange factor 3 (Homo sapiens) (UniProt O95398)
# Experiment: Validation qHTS for antagonist of cAMP-regulated guanine nucleotide exchange factor 3 (EPAC1); also: nearly all actives have a fitted effect of over 75% in size;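 as to activity change, negative = inhibition: plate controls were DMSO for no effect and ATA control for full effect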
# Conditions: EPAC1 Rap1B-BODIPY-GDP exchange, fluorescence; series mostly up to 150 µM; activity change, negative = inhibition: at the top concentration
# In short: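 Nucleotide exchange followed as fluorescence loss when BODIPY-GDP leaves Rap1B (480 nm excitation, 540 nm emission), read at 5 min intervals over 30 min. Reaction: 100 nM EPAC1, 250 nM RAP1B-BODIPY-GDP, 50 uM GDP; ATA and DMSO define normalization.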
# Potency is read from the fitted curve at half-maximal effect.
# Sequence of UniProt O95398 (O95398 whole entry, looked up): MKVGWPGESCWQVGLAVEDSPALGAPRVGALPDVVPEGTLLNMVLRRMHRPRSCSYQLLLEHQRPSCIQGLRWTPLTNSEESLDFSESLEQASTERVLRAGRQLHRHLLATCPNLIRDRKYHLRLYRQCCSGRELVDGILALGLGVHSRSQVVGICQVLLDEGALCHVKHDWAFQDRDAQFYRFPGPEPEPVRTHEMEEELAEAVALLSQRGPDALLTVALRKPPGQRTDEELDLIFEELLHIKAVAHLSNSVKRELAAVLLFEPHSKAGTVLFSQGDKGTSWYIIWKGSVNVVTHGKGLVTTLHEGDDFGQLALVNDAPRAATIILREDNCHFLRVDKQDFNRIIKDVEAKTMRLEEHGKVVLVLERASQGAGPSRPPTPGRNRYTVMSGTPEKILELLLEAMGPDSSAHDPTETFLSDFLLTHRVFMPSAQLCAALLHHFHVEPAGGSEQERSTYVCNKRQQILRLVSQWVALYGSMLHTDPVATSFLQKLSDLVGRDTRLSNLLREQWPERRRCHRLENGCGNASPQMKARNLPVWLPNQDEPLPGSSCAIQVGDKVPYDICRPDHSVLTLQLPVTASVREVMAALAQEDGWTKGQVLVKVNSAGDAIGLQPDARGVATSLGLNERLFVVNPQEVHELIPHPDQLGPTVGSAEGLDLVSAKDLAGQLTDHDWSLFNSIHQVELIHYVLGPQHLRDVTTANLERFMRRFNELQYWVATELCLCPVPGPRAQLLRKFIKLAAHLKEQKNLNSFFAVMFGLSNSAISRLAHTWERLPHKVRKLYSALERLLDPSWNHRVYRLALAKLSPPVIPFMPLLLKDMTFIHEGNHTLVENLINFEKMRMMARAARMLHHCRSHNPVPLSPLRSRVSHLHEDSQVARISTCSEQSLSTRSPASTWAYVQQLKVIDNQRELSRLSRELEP
SMILES,"activity change, negative = inhibition",Potency
Cc1cc(C)n(CCC(=O)NCC2Cc3cc(Cl)cc(-c4cnccn4)c3O2)n1 (stereo not drawn),inactive: 9.37%,
NC(=O)CCCCn1ccc(NC(N)=NCC(F)(F)F)n1,inactive,
O=C(Nc1ccccc1)[C@@]12C[C@@H]1/C(=N/O)c1ccccc1O2,inactive: -12.5%,
OCc1c[nH]c2ccccc12,inactive,
COC(=O)C1=C(C)NC(C)=C([N+](=O)[O-])[C@H]1c1ccccc1C(F)(F)F,inactive: -26.3%,
COc1ccc(CNC(=O)c2cnn(-c3nccc(-c4ccco4)n3)c2C)cc1OC,inactive: 17.1%,
CC(=O)NCc1c(I)c(NC(C)=O)c(I)c(C(=O)O)c1I,inactive: 26.6%,
O=S1(=O)CCOC[C@H](Cc2ccccc2)N1Cc1ccccc1Br,inactive: -9.16%,
Cc1nnc(C(C)C)n1C1C[C@H]2CC[C@@H](C1)N2CC[C@H](NC(=O)C1CCC(F)(F)CC1)c1ccccc1 (stereo partly drawn),inactive: -5.92%,
O=C(Nc1ccc(Br)cc1)c1cc(Br)c(Br)s1,inactive: -4.03%,
COc1ccc(C(=O)N2CCC3(CCN(C)CC3)CC2)cc1,inactive: 13.2%,
O=C(/C=C/c1ccc(O)cc1)c1ccc(O)cc1O,inactive,
Cc1ccc2[nH]c(C(=O)N3CCc4c(cnc(C)c4CNC(=O)c4ccccc4F)C3)cc2c1,inactive: 19.3%,
CCCCCCCCC(=O)NCc1cc(OC)c(O)cc1I,inactive: 7.94%,
Cc1c(NC(=O)c2cccnc2)c(=O)n(-c2ccccc2)n1C,inactive,
Nc1nc2nc(Cl)[nH]c2c(=O)[nH]1,inactive: 3.33%,
C[C@]12CCC(=O)C=C1CCC1C3CC[C@](O)(C(=O)CO)[C@@]3(C)CC3OC312 (stereo partly drawn),inactive: 8.61%,
CCOC(=O)C1CCCCN1C(=O)c1ccc(-n2cc(NC(=O)c3cccnc3)cn2)cc1 (stereo not drawn),inactive: 3.46%,
CS(=O)(=O)OCCCCOS(C)(=O)=O,inactive,
COc1cccc(CNC(=O)c2c(OC)cc(=O)n3c2CCN(C(=O)C2CC=CCC2)CC3)c1 (stereo not drawn),inactive: 12.6%,
N[C@@H](Cc1cc(I)c(Oc2ccc(O)c(I)c2)c(I)c1)C(=O)O,inactive,
Cc1cc(=O)oc2cc(O[C@@H]3O[C@H](C(=O)O)[C@@H](O)[C@H](O)[C@H]3O)ccc12,inactive: 13%,
COc1cc(OC)c2nc(-c3cc4c(c(OC)c3)OCCN(C(=O)CC3NC(=O)c5ccccc53)C4)cc(C)c2c1 (stereo not drawn),inactive: -5.65%,
O=C(c1ccco1)N1CCC2(CCN(Cc3ccccc3)CC2)CC1,inactive: 2.54%,
c1cncc(CNc2ncncc2-c2cccnc2)c1,inactive: 3.26%,
Cc1ccc2oc(-c3ccccc3)cc(=O)c2c1,inactive: -12.6%,

SMILES,"activity change, negative = inhibition",Potency
COC1C(O)C(CO)OC1n1cnc2c(=O)[nH]c(N)nc21 (stereo not drawn),inactive: 17.4%,
Cc1cnc(-n2ncc(C(=O)NCc3ccccn3)c2C2CC2)nc1-c1cccs1,inactive: 19.3%,
O=C1C[C@H]2C=CCc3cccc(c32)CN1Cc1ccccc1,inactive: 12.6%,
CNc1ncnc2ccc(-c3cccc(NS(C)(=O)=O)c3)cc12,inactive: 25.4%,
COc1ccc(S(=O)(=O)NCc2nc(N3CCCC3)c3cccc(C)c3n2)cc1OC,inactive: 17.6%,
CC[C@@]1(c2ccccc2)NC(=O)N(C)C1=O,inactive: 17.6%,
O=C(OC[C@H]1O[C@](O)(COC(=O)c2cccnc2)[C@@H](OC(=O)c2cccnc2)[C@@H]1OC(=O)c1cccnc1)c1cccnc1,inactive: 16.7%,
COc1cccc(-c2nccc(NCc3cnc(C)cn3)n2)c1,inactive: 3.57%,
CCNc1ncc2nc(-c3cc(F)cc(F)c3)c(=O)n(-c3ccccc3)c2n1,inactive: 10%,
CC1(C(=O)O)NCCc2cc(O)c(O)cc21 (stereo not drawn),inactive: 23%,
Cl/C(=C\n1cncn1)c1ccc(Cl)cc1Cl,inactive: -21%,
COc1ccccc1C(=O)N(Cc1cc2cccc(C)c2nc1N1CCC(O)CC1)C1CC1,inactive: -0.303%,
CCC(=O)NC1Cc2ccccc2C(c2ccccc2)C1 (stereo not drawn),inactive: 15.5%,
NC(N)=NCCC[C@@H](N)C(=O)O,inactive,
COc1ccc2[nH]cc(CCNc3ncncc3-c3ccc(C(=O)N(C)C)cc3)c2c1,inactive: -10.8%,
COc1cccc(-c2nc(N(C)C)c3ccccc3n2)c1,inactive: -0.184%,
COc1ccc(S[C@@H](CCN2CC[C@H](C)CCC2=O)c2ccccc2)cc1,inactive: -7.5%,
C=C1C[C@]23C[C@@]1(O)CC[C@H]2[C@@]12C=C[C@H](O)C(C)(C(=O)O1)[C@H]2[C@@H]3CC(=O)O,inactive: -0.992%,
COc1ccccc1CNc1ncncc1-c1cccnc1,inactive: 9.25%,
COc1ccccc1-c1ccnc(-n2ncc(C(=O)NC(c3cccnc3)C(F)(F)F)c2C)n1 (stereo not drawn),inactive: 15.5%,
CCNc1ncc2nc(-c3ccc(Cl)cc3)c(=O)n(Cc3cccs3)c2n1,inactive: 24.9%,
COc1ccccc1C(=O)N[C@@H]1c2ccccc2C2(CCN(C(=O)c3csnn3)CC2)[C@H]1OC,inactive: 5.95%,
CN(C)C(=O)c1ccc(-c2nc(NCc3ccccc3)c3ccccc3n2)cc1,inactive: 12%,
COc1ccc(CN2CCC3(CC2)c2ccccc2[C@@H](NC(=O)c2ccccc2)[C@@H]3O)cc1O,inactive: 1.77%,
COc1ccc(CNc2ncnc3ccc(-c4cccnc4)cc23)c(OC)c1,inactive: 21.8%,
Cc1ccc(=O)n(-c2ccccc2)c1,inactive,

SMILES,"activity change, negative = inhibition",Potency
CC(=O)[C@]1(O)CCC2C3CCC4=CC(=O)CC[C@@]4(C)C3CC[C@]21C (stereo partly drawn),inactive: 10.2%,
Cc1cnc(SCc2ccccn2)nc1C1CCCN(C(=O)c2coc3c2C(=O)CCC3)C1 (stereo not drawn),inactive: 0.122%,
Cc1ccc2nc(/C=C/c3ccc(N(C)C)cc3)ccc2c1,inactive: 29.3%,
COc1ccc(-c2nc3cnc(N4CCN(C)CC4)nc3n(CCC#N)c2=O)cc1,inactive: 1.09%,
O=C(c1cnccn1)N1CCC2(CCCN(c3ccccn3)C2)CC1,inactive: 5.63%,
CN1CCC(=C2c3ccccc3Sc3ccccc32)CC1,inactive: 294%,
CC(C)c1c(C(=O)N2CCCCC2c2cccnc2)cnn1-c1nccc(-c2cccs2)n1 (stereo not drawn),inactive: 21.6%,
Nc1c2ccccc2nc2ccccc12,inactive,
COc1cccc(Nc2ncc3nc(-c4ccccc4)c(=O)n(C[C@H]4CCCO4)c3n2)c1,inactive: 5.26%,
CC(=O)NCCNc1cc(-c2ccccc2C(F)(F)F)ncn1,inactive: 10.1%,
CCCCCCCCCCCC[n+]1ccc(/C=C/c2c[nH]c3ccccc23)c2ccccc21,inactive: -4.26%,
CC(=O)N1CCC[C@H]1C(=O)NCC1Cc2cc(Cl)cc(-c3ccc4[nH]ccc4c3)c2O1 (stereo partly drawn),inactive: 14.4%,
OC(C1=C/C(=C\c2ccncc2)c2ccccc21)c1ccncc1 (stereo not drawn),inactive: -24.3%,
O=C(NCCc1ccccn1)C1CC12CCN(C(=O)c1cccc(C(F)(F)F)c1)CC2 (stereo not drawn),inactive: 9.57%,
C[C@@H]1CNCCN1S(=O)(=O)c1cccc2cnccc12,inactive: 3.3%,
COCC(=O)Nc1cc(C(=O)N2CC3CCC2C3)c2c(c1)nc(-c1ccncc1)n2C (stereo not drawn),inactive: 12.2%,
C[C@@H](CN=[N+]=[N-])CN1CC[C@H](O)CCC1=O,inactive: 14.9%,
O=C(C[n+]1cc(Br)cc2ccccc21)c1ccc(F)cc1,inactive: 18.4%,
Cc1cc(NC(=O)Nc2ccc3c(ccn3C)c2)sn1,inactive,
N#CCCn1c(=O)cnc2cnc(N3CCNCC3)nc21,inactive: 7.74%,
COC(=O)C1NC(=O)N2C(C(=O)OC)C(C)(C)S[C@H]12 (stereo partly drawn),inactive: 0.869%,
Cc1cnc(CNc2cc(-c3ccc4c(c3)OCO4)ncn2)cn1,inactive: 9.51%,
COCCn1c(=O)cnc2cnc(N(C)C)nc21,inactive: -6.19%,
COc1ccc2c(c1)OC(C)CN(CCNC(=O)C1CCOC1)C2 (stereo not drawn),inactive: 17.6%,
O=C(CCCN1CCN(c2ccccn2)CC1)c1ccc(F)cc1,inactive,
COC(=O)c1cc(OC)c(=O)c2c(OC)c(OC)ccc2c1,inactive: 18.9%,

SMILES,"activity change, negative = inhibition",Potency
CN(C)c1ccc(-c2cc(-n3ccnc3)ncn2)cc1,inactive: 9.54%,
COc1cccc(-c2nc(N3CCN(C)CC3)c3ccccc3n2)c1,inactive: 4.77%,
O=S1(=O)CCOCCCN1Cc1ccc(Cl)cc1,inactive: 9.3%,
C=CC(C)(C)c1[nH]c2ccccc2c1C1=C(O)C(=O)C(c2c[nH]c3c(CC=C(C)C)cccc23)=C(O)C1=O,,active: 56.2 µM
COc1ccc([C@@H]2[C@@H](O)[C@H](O)[C@@H](C)N2C)cc1OC,inactive: 23.2%,
c1cncc(-c2cncnc2NCc2cccs2)c1,inactive: 11.6%,
N[C@@H](C(=O)O)c1ccc(C(=O)O)cc1,inactive,
OC(CN1CCOCC1)c1ccccc1 (stereo not drawn),inactive: 8.5%,
CO[C@H](C(=O)[C@@H](O)[C@@H](C)O)C1Cc2cc3cc(O[C@H]4C[C@@H](O[C@H]5C[C@@H](O)[C@H](O)[C@@H](C)O5)[C@@H](O)[C@@H](C)O4)c(C)c(O)c3c(O)c2C(=O)[C@H]1O[C@H]1C[C@@H](O[C@H]2C[C@@H](O[C@H]3C[C@](C)(O)[C@H](O)[C@@H](C)O3)[C@H](O)[C@@H](C)O2)[C@H](O)[C@@H](C)O1 (stereo partly drawn),inactive,
CC(=O)OCCC(C)CCC=C(C)C (stereo not drawn),inactive: 16.3%,
COc1ccc(F)c(CN2CCC3(CCC(CNC(=O)c4cc(C)nn4C)O3)CC2)c1 (stereo not drawn),inactive: 11.7%,
N[C@H](Cc1c[nH]c2ccccc12)C(=O)O,inactive: 18.1%,
COC(=O)[C@H](NC(=O)c1cc(-c2ccccc2)nc2ccccc12)c1ccccc1,inactive,
CC(=O)OC1CC[C@@]2(C)C3CC(=O)[C@]4(C)C(C(C)=O)=CCC4C3CC[C@H]2C1 (stereo partly drawn),inactive: 2.82%,
CN(C)C(N)=NCCC[C@H](N)C(=O)O,inactive: -12% [at 75.8 µM],
COC(=O)C1=C(C#N)NC(C)=C(C(=O)OC(C)C)C1c1cccc([N+](=O)[O-])c1 (stereo not drawn),inactive: -11.6%,
N#Cc1cc2nc(O)c(O)nc2cc1[N+](=O)[O-],inactive,
Nc1ccc(S(=O)(=O)NCc2ccccc2)cc1,inactive: 8.96%,
NC(=O)c1ccccc1-c1nc(-n2ccnc2)c2ccccc2n1,inactive: 11.9%,
COCC(=O)Nc1cc(C(=O)N2CCCCC2c2nccs2)c2c(c1)nc(-c1ccncc1)n2C (stereo not drawn),inactive: 6.53%,
C[C@@H](CN1CCC(Cc2ccccc2)CC1)[C@@H](O)c1ccc(O)cc1,inactive,
CCCCC[C@H](O)CC[C@H]1[C@H](O)CC(=O)[C@@H]1CCCCCCC(=O)O,inactive: 7.46% [at 15.3 µM],
CC1CC(OC(=O)c2ccccc2O)CC(C)(C)C1 (stereo not drawn),inactive,
N[C@@H](CS(=O)O)C(=O)O,inactive,
COc1ccc(NC(=O)N2CCCC3(CCNCC3)C2)cc1,inactive: 1.98%,
